Assay results reported in PubChem BioAssay AID1460 (National Center for Advancing Translational Sciences (NCATS), 2008).
The whole screen tested about 270,000 compounds, of which about 5,800 (2.1%) were called active. Inconclusive results, whose numbers are uncertain, are shown with a selection of clear calls. Calls follow the shape of the dose curve; as a rule, active = well fitted inhibition curve with a large enough effect; inconclusive = small, poorly fitted or top-dose-only effect; inactive = flat fitted curve, though single readings scatter. A potency beside an inconclusive call is a rough fit, not a confirmed value.

Molecular target: Microtubule-associated protein tau (Homo sapiens) (UniProt P10636)
Experiment: qHTS for Inhibitors of Tau Fibril Formation, Thioflavin T Binding; also: nearly all actives have a fitted effect of over 55% in size
Details: recombinant tau K18 P301L, heparin-induced fibrillization, ThT fluorescence; series mostly up to 57.4 µM; activity, negative = inhibition: at the top concentration
Outline: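 ThT emission at 510 nm, taken 1 hr after adding 30 uM dye, quantifies aggregates formed when 20 uM heparin acts on human tau K18 P301L for 6 hr at 37 C.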
% is scaled to controls: 0 for no effect and ±100 for the full control effect; potency is read from the fitted curve at half-maximal effect; tags tell the direction and shape of the fitted curve.

Chain of UniProt P10636 (P10636 whole entry, looked up): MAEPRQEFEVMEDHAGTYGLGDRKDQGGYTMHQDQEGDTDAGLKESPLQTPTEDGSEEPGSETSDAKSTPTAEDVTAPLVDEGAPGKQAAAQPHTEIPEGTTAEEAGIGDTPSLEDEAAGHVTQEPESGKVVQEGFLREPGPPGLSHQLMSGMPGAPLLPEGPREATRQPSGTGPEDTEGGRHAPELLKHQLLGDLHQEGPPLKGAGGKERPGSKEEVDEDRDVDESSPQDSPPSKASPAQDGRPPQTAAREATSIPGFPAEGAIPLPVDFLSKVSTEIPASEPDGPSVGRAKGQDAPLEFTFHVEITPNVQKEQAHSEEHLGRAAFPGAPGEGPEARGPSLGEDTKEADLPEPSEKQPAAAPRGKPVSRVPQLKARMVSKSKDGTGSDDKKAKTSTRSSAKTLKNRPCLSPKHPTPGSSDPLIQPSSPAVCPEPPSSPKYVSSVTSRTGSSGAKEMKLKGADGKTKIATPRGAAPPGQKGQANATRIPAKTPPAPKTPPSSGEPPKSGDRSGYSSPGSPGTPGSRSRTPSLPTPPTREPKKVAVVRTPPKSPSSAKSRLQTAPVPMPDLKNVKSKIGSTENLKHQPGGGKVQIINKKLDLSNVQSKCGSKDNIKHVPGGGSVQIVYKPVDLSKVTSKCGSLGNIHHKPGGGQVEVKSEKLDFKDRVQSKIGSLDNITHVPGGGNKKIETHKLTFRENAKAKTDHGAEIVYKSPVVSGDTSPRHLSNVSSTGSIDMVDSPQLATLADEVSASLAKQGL

SMILES | Potency | activity, negative = inhibition
O=C(Nc1ccccc1)C1CC(=O)n2c(nc3ccccc32)N1 (configuration not stated) | inconclusive: 2.51 µM [activator, single point] | –
COc1ccc(C=O)cc1CSc1nnc(COc2cccc3cccnc23)o1 | inconclusive: 5.01 µM [inhibitor, partial curve] | –
O=S(=O)(Nc1ccc(Br)cc1F)c1ccc2nc(-c3ccccc3)[nH]c2c1 | inconclusive: 22.4 µM [activator, single point] | –
COc1ccc(OC)c(Nc2ncnc3c2cnn3-c2ccccc2)c1 | inconclusive: 12.6 µM [inhibitor, partial curve] | –
Cc1ccccc1NC1=C(Cl)C(=O)N(C2CCCCC2)C1=O | inconclusive: 25.1 µM [inhibitor, single point] | –
CCOC(=O)c1ccc(CN(Cc2ccc(F)cc2)S(=O)(=O)c2ccc(F)c(C(=O)Nc3ccc(Cl)cc3F)c2)cc1 | – | inactive: 3.77%
O=C(O)c1c(Sc2ccccc2)c2cc(Cl)ccc2n1Cc1ccc(Cl)cc1 | inconclusive: 35.5 µM [inhibitor, single point] | –
COc1ccc(Br)c(C(=O)Nc2cc3c(cc2N2CCOCC2)n(C)c(=O)n3C)c1 | – | inactive: -17%
CCOc1ccc(NC(=O)c2c(NCc3cccnc3)sc3c2CCCC3)cc1 | inconclusive: 17.8 µM [inhibitor, partial curve] | –
CC(=O)c1cc(CN2CCC(N3CCC(C(=O)NC(C)C)CC3)CC2)cs1 | – | inactive: -8.22%
O=C(CCS(=O)(=O)c1cccc2nonc12)Nc1c(F)cccc1F | – | inactive: -3.26%
Cc1cc(C)cc(NC(=O)N2CCC3(CC2)Oc2ccccc2C(=O)N3Cc2ccccc2F)c1 | inconclusive: 20 µM [inhibitor, single point] | –
Cc1ccccc1-c1nn2c(=O)cc(CN3CCN(C(=O)/C=C/c4ccccc4)CC3)nc2s1 | inconclusive: 10 µM [inhibitor, partial curve, poor fit] | –
CCOc1ccccc1CNC(=O)c1cc(-c2ccc(Cl)s2)nc2ccccc12 | – | inactive: -7.51%
CCn1c2ccccc2c2nnc(SCC(=O)Nc3ccccc3OC)nc21 | inconclusive: 28.2 µM [inhibitor, single point] | –
CC(=O)Nc1ccc(NC(=O)C2CCCN2/C=C/C(=O)C(F)(F)F)cc1 (configuration not stated) | – | inactive: -4.56%
Cc1ccc(S(=O)(=O)Nc2nsc(N)n2)cc1 | active: 11.2 µM | –
O=S(=O)(NCC(c1cccs1)S(=O)(=O)c1ccccc1)c1ccc(F)cc1 (configuration not stated) | – | inactive: 1.79%
O=C(C1CC(=O)N(C2CCCC2)C1)N1CCC(Cc2ccccc2)CC1 (configuration not stated) | – | inactive: 0.589%
CCc1nn2c(=O)cc(COc3ccc(/C=C(\C#N)C(=O)Nc4ccc(F)cc4)cc3OC)nc2s1 | inconclusive: 2 µM [inhibitor, full curve] | –
O=C(COc1ccccc1)NCCc1csc(-c2ccc(Cl)cc2)n1 | inconclusive: 15.8 µM [inhibitor, single point] | –
O=C(CSc1nc2scc(-c3ccco3)c2c(=O)n1-c1ccccc1)N1CCOCC1 | – | inactive: -18.1%
Cc1ccc(-c2nc(CS(=O)(=O)CC(=O)N3CCc4ccccc4C3)c(C)o2)cc1 | inconclusive: 25.1 µM [inhibitor, single point] | –

SMILES | Potency | activity, negative = inhibition
CC(=O)Nc1cccc(C(=O)/C=C/c2ccc(C)cc2)c1 | inconclusive: 7.08 µM [inhibitor, partial curve] | –
CC1CCC2C(=O)N(c3ccc(NC4CCCCC4)c([N+](=O)[O-])c3)C(=O)C2C1 (configuration not stated) | inconclusive: 14.1 µM [inhibitor, partial curve] | –
O=C(NCCc1csc(-c2ccc(Cl)cc2)n1)c1ccco1 | – | inactive: -8.57%
CNC(=O)c1c(NC(=O)c2ccc(N3C(=O)CCC3=O)cc2)sc2c1CCCC2 | inconclusive: 28.2 µM [inhibitor, partial curve, poor fit] | –
Cc1cccc2nc(-c3ccc(N(C)C)cc3)c(Nc3ccc4c(c3)OCO4)n12 | inconclusive: 4.47 µM [inhibitor, partial curve] | –
CCS(=O)(=O)c1ccc(O)c(NC(=O)c2cc(OC)c(OC)c(OC)c2)c1 | – | inactive: -13.5%
Cc1ccc(/C=N/NC(=O)c2n[nH]c3c2CCCC3)cc1 | inconclusive: 1.12 µM [inhibitor, full curve, poor fit] | –
O=C(c1ccccc1)C1CN(Cc2ccccc2)CCC1(O)c1ccccc1 (configuration not stated) | inconclusive: 22.4 µM [inhibitor, partial curve] | –
Cc1cc2cc(CNC(=O)CCC(=O)O)ccc2[nH]1 | – | inactive: -6.38%
c1ccc(C2=Nc3ccccc3NC(c3ccccc3)C2)cc1 (configuration not stated) | inconclusive: 15.8 µM [inhibitor, partial curve] | –
O=C(Nc1ccc(N2CCN(c3ccc(C(F)(F)F)cn3)CC2)nc1)c1cccs1 | inconclusive: 3.16 µM [inhibitor, partial curve] | –
CN(Cc1ccccc1)C(=O)c1[nH]cnc1C(=O)N[C@@H](CCCCNC(=O)OC(C)(C)C)C(=O)OC(C)(C)C | – | inactive: -4.1%
CCn1c(SCC(=O)c2ccc3c(c2)Cc2ccccc2-3)nnc1-c1ccc(N)cc1 | inconclusive: 1.41 µM [inhibitor, full curve] | –
O=C(Oc1cc(Cl)ccc1Cl)c1ccc(N2CCOCC2)c([N+](=O)[O-])c1 | active: 15.8 µM | –
O=C(Nc1ccc2nc(-c3cccs3)[nH]c2c1)c1ccco1 | inconclusive: 8.91 µM [inhibitor, partial curve] | –
COc1ccc(CC2SC(=Nc3ccc(F)cc3)NC2=O)cc1 (configuration not stated) | – | inactive: -4.19%
Cc1cc2c(C)c(C)c(=O)[nH]c2cc1N | inconclusive: 39.8 µM [inhibitor, single point] | –
COc1ccc(CNC(=O)COC(=O)Cc2ccc(Cl)cc2Cl)cc1 | – | inactive: -0.616%
CCOc1ccc(OCc2ccc(C(=O)Nc3cc(OC)c(OC)c(OC)c3)o2)cc1 | inconclusive: 6.31 µM [inhibitor, full curve] | –
O=C(c1cnn(C(=O)COc2ccccc2F)c1)c1cc(F)ccc1O | inconclusive: 35.5 µM [inhibitor, single point] | –
Cc1nc2ncnn2c(N2CCCC(C(=O)Nc3ccc4c(c3)CCC4)C2)c1C (configuration not stated) | – | inactive: -14.6%
CCS(=O)(=O)N1CCc2cc(C(=O)NCc3ccc(Cl)cc3)ccc21 | – | inactive: 0.29%
C/C(CCC(=O)OC[C@@H]1O[C@H](C#Cc2ccccc2)C=C[C@@H]1Oc1ccc(C)cc1)=N/OC[C@@H](O)[C@H]1O[C@H]2OC(C)(C)O[C@H]2[C@@H]1O | – | inactive: 2.85% [at 11.5 µM]

SMILES | Potency | activity, negative = inhibition
Cn1c(SCC(=O)O)nnc1-c1ccc(NC(=O)c2ccc(Cl)c(Cl)c2)cc1 | – | inactive: -12.4%
NNC(=O)c1sc(-c2ccc(Cl)cc2)cc1N | inconclusive: 15.8 µM [inhibitor, partial curve] | –
COc1cc(/C=N/Nc2nc(C)nc3c2cnn3-c2ccccc2)ccc1O | inconclusive: 14.1 µM [inhibitor, partial curve] | –
CCCc1ccc(C(=O)/C=C/N(C)C)cc1 | inconclusive: 25.1 µM [inhibitor, single point] | –
Nc1ncc(Br)cc1S(=O)(=O)NCCC(=O)N1CCN(c2ccccn2)CC1 | inconclusive: 7.08 µM [inhibitor, partial curve] | –
COc1ccccc1C(=O)N=Nc1c(O)[nH]c2ccc([N+](=O)[O-])cc12 | inconclusive: 22.4 µM [inhibitor, partial curve] | –
Cc1cc(C)nc(Nc2ccc(N3CCCC3)cc2)n1 | inconclusive: 14.1 µM [inhibitor, partial curve] | –
Cc1cc(C)nc(NS(=O)(=O)c2ccc(NC(=O)Nc3ccccc3F)cc2)n1 | – | inactive: -14.8%
Cc1ccc(-c2nc(SCC(=O)Nc3ccccc3OC(F)F)c3c(C)c(C(=O)O)sc3n2)cc1 | inconclusive: 22.4 µM [activator, partial curve, poor fit] | –
CCc1nnc(NC(=O)c2cc(-c3ccncc3)nc3ccccc23)s1 | inconclusive: 44.7 µM [inhibitor, single point] | –
COc1cccc2cc(C(C)=O)oc12 | – | inactive: -0.559%
O=C(Nc1ccc(Br)cc1F)c1cc(S(=O)(=O)NC2CCCC2)ccc1F | – | inactive: 7.21%
CCOC(=O)C1=C(C)OC(N)=C(C#N)C1c1cc2cc(C)ccc2nc1N1CCCCC1 (configuration not stated) | inconclusive: 25.1 µM [inhibitor, partial curve] | –
CCc1ccc2c(c1)C(c1ccncc1)=NNC(c1ccccc1)=N2 | inconclusive: 31.6 µM [inhibitor, single point] | –
CCCC(=O)Nc1ccc(NC(=O)CCc2ccccc2)cn1 | inconclusive: 10 µM [inhibitor, partial curve] | –
O=C(Nc1cc(S(=O)(=O)N2CCCCC2)ccc1O)c1ccccc1NS(=O)(=O)c1ccc(F)c(F)c1 | inconclusive: 25.1 µM [inhibitor, partial curve] | –
COc1ccc2cc(C(=O)COC(=O)COc3ccc4c(C)cc(=O)oc4c3)ccc2c1 | inconclusive: 0.199 µM [inhibitor, full curve] | –
Cc1c(C(=O)/C=C/c2cccs2)oc2ccc(F)cc12 | inconclusive: 10 µM [inhibitor, partial curve] | –
COc1ccc(NC(=O)c2ccc3c(SCC(=O)O)c4c(nc3c2)CCCC4)cc1OC | inconclusive: 7.08 µM [inhibitor, full curve] | –
CCCOc1ccc(C(=O)Nc2ccc3oc(-c4ccc5ccccc5c4)nc3c2)cc1 | inconclusive: 2.82 µM [inhibitor, full curve] | –
CCN1CCN(Cc2ccc(NC(=O)c3ccc(C)c(NC(=O)c4csc(-c5ccncc5)n4)c3)cc2C(F)(F)F)CC1 | inconclusive: 3.98 µM [inhibitor, single point] | –
